Experimental data reported in the RNAGym collection of RNA variant scans (doi:10.1093/nar/gkz1192).
Read counts are not given, so values of variants with three or more changes are uncertain.

B1: CPEB3 Ribozyme (parent)
chain: UAACAGGGGGCCACAGCAGAAGCGUUCACGUCGCAGCCCCUGUCAGAUUCUGGUGAAUCUGCGAAUUCUGCUGUAUAUCUC

Variants of: B1
Assay: self-cleavage, relative activity (ratio to wild type); higher = more cleavage; in vitro, sequencing
Outline: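 For each CPEB3 ribozyme variant, relative activity is its cleaved/total read fraction divided by the unmutated ribozyme's. Barcoded error-prone PCR libraries were transcribed by T7 RNA polymerase (5 hours, 37°C) and held in DNase I for 15 min before an EDTA stop, with cleavage occurring throughout. Template-switching reverse transcription and Illumina sequencing were used to read the RNAs. A 5-read minimum applied, and results are the mean of three batches.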

Variant	self-cleavage
UAGCAGGGGGCCACAGCAGAAGCGUUCACGUCGCAGCCCCUGUCAGGUUCUGGUGAAUCCGCGAAUUCUGCUGUAUAUCUC [A3G A47G U60C]	0.43
UAGCAGGGGGCCACAGCAGAAGCGUUCGCGUCGCAGCCCCUGUCAGAUUCUGGUGAAUCUGCGGAUUCUGCCGUAUAUCUC [A3G A28G A64G U72C]	0.28
UAGCAGGGGGCCACAGCAGAAGCGUUCACGUCGCUGCCCCUGUCAGAUUCUGGUGAAUCUGCGAAUUCUGCUGUAAACCUC [A3G A35U U76A U78C]	0.6
UAGCAGGGGGCCACAGCAGAAGCGUUCACGUCGCUGCCCCUGUCAGAUUCUGGUGAACCUGCGAAUUCUGCUGUAUAUCUC [A3G A35U U58C]	0.25
UAGCAGGGGGCCACAGCAGAAGCGUUCACGUCGCAGCCCCUGUCUGAUUCUGGUGAAUCUGCGAAUCCUGCUGUAUAUCUC [A3G A45U U67C]	0.28
UAGCAGGGGGCCACAGCAGAGGCGUUCACGUCGCAGCCCCAGUCAGAUUCUGGUGUAUCUGCGAAUUCUGCAGUAUAUCUC [A3G A21G U41A A56U U72A]	0.08
UAGCAGGGGGCCACAGCAGAGGCGUUCACGUCGCAGCCCCAGUCAGAUUCUGGUGAGUCCGCGAGUUCUGCUGUAUAUCUC [A3G A21G U41A A57G U60C A65G]	0.09
UAGCAGGGGGCCACAGCAGAAGCGUUCACGUCGCAGCCCCUGUCAGAUUCUGGUGGAUCUGCGAAUUCUGCUGCAUAUCUC [A3G A56G U74C]	1.15
UAGCAGGGGGCCACAGCAGAAGCGUUCACGUCGCGGCCCAUGUCAGAUUCUGGUGAAUCUGCGAAUUCUGAUGUAUAUCUC [A3G A35G C40A C71A]	0.06
UAGCAGGGGGCCACAGCAGAAGCGUUCUCGUCGCGGCCCCUGUCAGAUUCUGGUGAAUCUGCGAAUUCUGCUGUAUAUCUC [A3G A28U A35G]	1.19
UAGCAGGGGGCCACAGCAGAAGCGUUCCCGUCGCAGCCCCUGUCAGAUUCUGGUGAAUCCGCGAAUUCUGCUGUAUAUCUC [A3G A28C U60C]	0.11
UAGUAGGGGGCCACGGCAGAAGCGUACACGUCGCAGCCCCAGUCAGAUUCCGGUGAAUCUGCGAAUUCUGCUGUAUAUCUC [A3G C4U A15G U26A U41A U51C]	0.4
UAGCAGGGGGCCACAGCAGAAGCGUUCACGUCGCUGCCCCUGUCUGAUUCUGGUGAAACUGCGAAUUCUGCUGUAUAUCUC [A3G A35U A45U U58A]	0.25
UAGGAGGGGGCCACUGCAGAAUCGUCCACGUCGCAGCCCCUGUCAGAUUCUGGCGAAUCCGCGAAUUCUGCUGUAUAUCUC [A3G C4G A15U G22U U26C U54C U60C]	0.23
UAGCAGGGGGCCACAGCAGAAGCGUUCACGUCGCAGCCCCUGUCGGAUUCUGGUGAAUCCGCGAAUUCUGCUGUAUAUCUC [A3G A45G U60C]	1.09
UAGCAGGGGGCCACAGCAGAGGCGUUCACGUCGCAGCCCCAGUCAGAUUCUGGUGAAUCUGCGAAUUCUGCCGUAUAUCUC [A3G A21G U41A U72C]	0.13
UAGCAGGGGGACACAGCAGAAGCGUUCACGUCGCAGCCCCUGUCGGAUUCUGGUGAAUCUGCGGAUUCUGCUGUAUAUCUC [A3G C11A A45G A64G]	0.13

Variant	self-cleavage
UAGCAGGGGGCCACAGCAGAAGCGUUCACGUCGCUGCCCCUGUCAGAUUCUGGUGGUUCUGCGAAUUCUGCUGUAUAUCUC [A3G A35U A56G A57U]	0.19
UAGCAGGGGGCCACAGCAGAAGCGUUCACGUCGCAGCCCCUGUCAGUUUCUGGUGAAUCUGCGAAGUCUGCUGUAUAUCUC [A3G A47U U66G]	0.27
UAGCAGGGGGCCACAGCAGAGGCGUUCACGUCGCAGCCCCUGGCAGAUUCUGGUGAAUCUGCGAAUUCUGCGGUAUAUCUC [A3G A21G U43G U72G]	0.07
UAGCAGGGGGCCACAGCAGAGGCGUUCACGUCGCAGCCCCUGUCAGAUCCCGGCAAAUCUGCGAAUUCUGCUGUAUAUCUC [A3G A21G U49C U51C U54C G55A]	0.32
UAGCAGGGGGCCACAGCAGAAGCGUUCUCGUCGCAGCCCCUGUCAGAACCUGGUGAAUCUGCGAAUUCUGCUGUAUAUCUC [A3G A28U U48A U49C]	0.28
UAGCAGGGGGCCACAGCAGAAGCGUUCACGUCGCUGCCCCUGUUAGAUUCUGGUGAAUCUGCGAAUUCUGCUGUAUAUCUC [A3G A35U C44U]	0.4
UAGCAGGGGGCCACAGCAGAAGCGUUCACGUCGCAGCCCCUGUCAGAUUCUGGUGAAUCUGCGUAUACUGCUGUAUACCUC [A3G A64U U67A U78C]	0.42
UAGCAGGGGGCCACAGCAGAAGCGUUCACGUCGCAGCCCCUGUCCGACUCUGGUGAAUCUGCGAGUUCUGCUGUAUAUUUC [A3G A45C U48C A65G C79U]	0
UAGCAGGGGGCCACAGCAGAAGCGUUCGGGUCGCAGCCCCUGUCAGUUUCUGGUGAAUCUGCGAGUUCUGCCGUAUAUCUC [A3G A28G C29G A47U A65G U72C]	0.23
UAGCAGGGGGGCACAGCAGAAGCGUUCACGUCGCAGCCCCUGUCAGAUUCUGGUGAAUCUGCGAAUUCUGCUGUAUGUCUC [A3G C11G A77G]	0.47
UAGUAGGGGGCCACAGCAGAAGCGUUCACGUCGCAGCCCCUGUCAGAUUCUGGUGAAUCUGCGAGUUCCGCUGUAUAUCUC [A3G C4U A65G U69C]	0.57
UAGUAGCGGGCCACAGCAGAAGCGUUCACGUCGCAGCCCCUGUCAGAUUCUGGUGAAUCUGCGAAUUCUGCUGUAUAUCCC [A3G C4U G7C U80C]	0.99
UAGCAGGGGGCCACAGCAGAAGCGUUCACGUCGCAGCCCCUGUCUGACUCUGGUGAAUCUGCGAAUUCUGCUGUAUAUCUC [A3G A45U U48C]	0.33
UAGCAGGGGGCCACAGCAGAAGCGUUCACGUCGCAGCCCCUGUCAGAUUCUGGUGGAUCCGCGAAUUCUGCUGUAUAUCUC [A3G A56G U60C]	0.22
UAGCAGGGGGCCACAGCAGAAGCGUUCACGUCGCUGCCCCUGUCAGAUUCUGGUGAAUCUGCGAAUUCAGCUGUAUAUCUC [A3G A35U U69A]	0.34
UAGCAGGGGGCCACAGCAGAAGCGUUCACGUCGCAGCCCCUGUCAGAUUCUGGUGAAUCUGCGGAUUCUGCUGUAUAUCUU [A3G A64G C81U]	0.97
UAGCAGGGGGCCACAGCAGAAGCGUUCACGUCGCGGCCCCAGUCAGAUUCCGGGGAAUCUGCGAAUCCUGCAGUAUAUCUC [A3G A35G U41A U51C U54G U67C U72A]	0.09
